About 310 (0.076%) of roughly 410,000 compounds were called active. Inconclusive results, whose numbers are uncertain, are shown with a selection of clear calls. Calls come from the whole dose curve; as a rule, active = well fitted curve in the direction sought with a large enough effect; inconclusive = small, poorly fitted or top-dose-only effect; inactive = flat fitted curve, though single readings scatter. Where the call is inconclusive, the potency comes from a doubtful curve fit.
target: DNA dC->dU-editing enzyme APOBEC-3G (Homo sapiens) (UniProt Q9HC16); test: qHTS for Inhibitors of Vif-A3G Interactions: qHTS; conditions: HeLa A3G-eYFP + Vif (tagged APOBEC3G with the HIV-1 protein that degrades it), YFP fluorescence, overnight; series mostly up to 46.1 µM; activity, negative = active: at the top concentration; note: nearly all actives have a fitted effect of over 60% in size;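 for activity, negative = active: hits raise eYFP signal because A3G escapes Vif-driven loss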
Source text: The recent discovery and characterization of host restriction factors, which provide a potent defense to invading retroviruses, has provided new targets for antiviral drug development. APOBEC3G (A3G) and APOBEC3F (A3F) are potent cytidine deaminases that block HIV-1 replication; HIV-1 expresses the Vif protein, which counteracts A3G and A3F by binding to them and inducing their proteasomal degradation. The Vif-A3G and Vif-A3F interactions provide two potential targets for development of small molecules which can interfere with the ability of Vif to degrade A3G or A3F. […] To identify inhibitors that can interfere with Vif mediated degradation of A3G and A3F, we have developed Hela cell lines that stably express A3G or A3F tagged with eYFP at the C-terminal end (A3G-eYFP or A3F-eYFP, respectively) and Vif. In the absence of an inhibitor, Vif induces degradation of A3G-eYFP and A3F-eYFP, and the cells are not fluorescent. In the presence of an inhibitor, it is expected that Vif will be unable to degrade A3G-eYFP and/or A3F-eYFP, resulting in an increase in yellow fluorescence. In this assays Vif A3G was screened against the Molecular Library Small Molecule Repository (MLSMR). NIH Chemical Genomics Center [NCGC] NIH Molecular Libraries Probe Centers Network [MLPCN] MLPCN Grant: MH093245 Assay Submitter (PI): Vinay Pathak, National Cancer Institute
5 uL of 700 cells/well of A3G-YFP cells are dispensed into black, clear bottom plates. The plates are incubated overnight at 37 deg C. 23 nL of compounds are added by pintool. The plates are incubated overnight at 37 deg C and then read on the TTP Acumen (Ex 488/ Em 500-530).
% is set by controls: 0 for no effect and ±100 for the full control effect; potency is the fitted concentration of half-maximal effect; tags give direction and shape of the fitted curve.

Chain of UniProt Q9HC16 (Q9HC16 whole entry, looked up): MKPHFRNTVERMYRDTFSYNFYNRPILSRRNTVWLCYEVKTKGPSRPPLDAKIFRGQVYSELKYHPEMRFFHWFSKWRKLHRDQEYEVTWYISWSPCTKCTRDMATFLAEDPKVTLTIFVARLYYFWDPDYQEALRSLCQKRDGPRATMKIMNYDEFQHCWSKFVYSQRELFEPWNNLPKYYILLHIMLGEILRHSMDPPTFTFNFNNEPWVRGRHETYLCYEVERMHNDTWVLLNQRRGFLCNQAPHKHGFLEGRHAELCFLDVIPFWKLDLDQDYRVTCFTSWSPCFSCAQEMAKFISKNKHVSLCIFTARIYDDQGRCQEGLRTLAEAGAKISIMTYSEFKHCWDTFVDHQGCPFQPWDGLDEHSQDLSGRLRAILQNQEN

Row | Structure (SMILES) | Potency | activity, negative = active
1 | COc1cc(C(=O)NN=Cc2ccc(N(C)C)cc2)cc(OC)c1OC | inconclusive: 1 µM [inhibitor, full curve, poor fit] | 
2 | COc1ccc(S(=O)(=O)N2CCCc3ccccc32)cc1[N+](=O)[O-] | inconclusive: 2.24 µM [inhibitor, full curve, poor fit] | 
3 | CSc1ccc(Cl)c(C(=O)Nc2ccc(Cl)cn2)c1 | inconclusive: 10 µM [inhibitor, partial curve] | 
4 | Cc1cccn2c(=O)c(/C=C(\C#N)C(=O)NC3CCS(=O)(=O)C3)c(Oc3ccccc3Cl)nc12 (centres undefined) | inconclusive: 22.4 µM [inhibitor, single point] | 
5 | COc1cc(/C=C2/SC(=S)N(Cc3ccccc3)C2=O)cc(OC)c1O | inconclusive: 7.94 µM [inhibitor, partial curve] | 
6 | CCc1nnc(NC(=O)CSc2nc(C)c3c(c2C#N)CCCC3)s1 | inconclusive: 5.01 µM [inhibitor, partial curve, poor fit] | 
7 | O=S(=O)(CCSc1nc2ccccc2s1)c1nc2ccccc2s1 | inconclusive: 25.1 µM [inhibitor, single point] | 
8 | O=C(NN1C(=O)/C(=C/c2ccc(O)cc2)SC1=S)c1cccc(O)c1 | inconclusive: 35.5 µM [inhibitor, single point] | 
9 | COc1ccc2[nH]cc(C(=O)CN3CC(C)CC(C)C3)c2c1 (centres undefined) |  | inactive: -0.873%
10 | C=CCc1cccc(C=Nc2cc(Br)ccc2O)c1O | inconclusive: 17.8 µM [inhibitor, single point] | 
11 | Cc1ccc(-n2nc3c(N4CCC(C(=O)NC(C)c5ccccc5)CC4)nnc(C)c3c2C)cc1 (centres undefined) | inconclusive: 35.5 µM [inhibitor, single point] | 
12 | COc1cccc(NC(=O)N2CCc3nc(NCc4cccc(Oc5ccccc5)c4)ncc3C2)c1 | inconclusive: 3.16 µM [inhibitor, full curve, poor fit] | 
13 | CN(C)C(=O)c1cccc(-c2cnc3c(NC=O)cc(-c4ccc(N(C)C)cc4)cn23)c1 | inconclusive: 22.4 µM [inhibitor, single point] | 
14 | N#Cc1ccsc1NC(=O)CCc1ccccc1 | inconclusive: 22.4 µM [inhibitor, single point] | 
15 | CC(=O)Oc1ccc(N2C(=O)c3cccc4c([N+](=O)[O-])ccc(c34)C2=O)cc1 | inconclusive: 15.8 µM [inhibitor, partial curve, poor fit] | 
16 | CCOc1ccc(NC(=O)N(Cc2c[nH]c3ccccc23)C2CCCCCC2)cc1 |  | inactive: 13.6%
17 | N#Cc1ccc(-c2ccc(F)cc2)nc1SCC(=O)Nc1sc2c(c1C#N)CCC2 | inconclusive: 6.31 µM [inhibitor, single point] | 
18 | O=C1c2ccccc2C(=O)N1CCC(c1ccccc1)c1ccco1 (centres undefined) | inconclusive: 22.4 µM [inhibitor, single point] | 
19 | OC1CN=C2CCCc3c2n(c2ccc(Cl)cc32)C1 (centres undefined) |  | inactive: -13.8%
20 | Cc1cc(Br)cn2c(Cc3ccsc3)c(-c3ccc(F)cc3)nc12 |  | inactive: -16.7%
21 | O=S(=O)(Nc1cccc2cccnc12)c1ccc(S(=O)(=O)N2CCCC2)cc1 | inconclusive: 7.08 µM [inhibitor, partial curve, poor fit] | 
22 | COc1ccc(CCNC(=O)Cn2c(=O)c3cccn3c3ccc(F)cc32)c(OC)c1 |  | inactive: 5.01%
23 | CCN(CC)Cc1c(NC(=O)c2ccc(OC)cc2)sc2c1CCCC2 | inconclusive: 3.55 µM [inhibitor, partial curve, poor fit] | 

Row | Structure (SMILES) | Potency | activity, negative = active
24 | CC(=O)Nc1ccc(S(=O)(=O)Nc2cccn(Cc3ccc(C)cc3)c2=O)cc1 |  | inactive: 0.932%
25 | CCC1=Nc2cc(C(=O)NCc3ccco3)ccc2Sc2ccc(Cl)cc21 | inconclusive: 0.562 µM [inhibitor, full curve, poor fit] | 
26 | Cc1noc(C)c1COc1cccc(C(=O)NCCc2c[nH]c3ccccc23)c1 | inconclusive: 3.55 µM [inhibitor, full curve, poor fit] | 
27 | O=C(Nc1ncnc2nc[nH]c12)c1ccccc1 | inactive | 
28 | Cc1ccc(C(=O)NC(=S)Nc2ccc3c(c2)OCCO3)c(C)c1 |  | inactive: -0.348%
29 | Cc1cccc(NC(=O)c2ccc([N+](=O)[O-])o2)c1C | inconclusive: 22.4 µM [inhibitor, single point] | 
30 | COc1ccccc1-c1cccc([C@@H]2C[C@H]3[C@H](CON3C)CN2C(=O)CCc2ccccc2)c1 |  | inactive: -3.27%
31 | COc1ccc(-c2nn(-c3ccccc3)cc2/C=N/NC(=O)c2ccc(Br)o2)cc1 |  | inactive: -8.61%
32 | COc1ccccc1N1CCN(C2CCN(C(=O)c3cccc(F)c3)CC2)CC1 |  | inactive: -0.307%
33 | COCCn1c(C)cc(C2=NNC(=Nc3ccc(OC)cc3)SC2)c1C | inconclusive: 1.12 µM [inhibitor, full curve, poor fit] | 
34 | Cc1ccc(CNC(=O)c2cnc3c(-c4ccccc4)c(C)nn3c2C)o1 |  | inactive: -2.46%
35 | CC1=NN(c2ccccc2)C(=O)/C1=C/C=C/c1ccccc1 | inconclusive: 8.91 µM [inhibitor, partial curve, poor fit] | 
36 | CN(Cc1ccccc1)C(=O)C1CCC(CNS(=O)(=O)c2ccc3c(c2)CCCC(=O)N3)CC1 (centres undefined) |  | inactive: 6.14%
37 | COc1cccc(C(=O)N(C)CC2CCN(CCc3cccc(C(F)(F)F)c3)CC2)c1 |  | inactive: 0.272%
38 | COc1ccc(SCCN2CCN(CCc3ccccc3)CCC2=O)cc1 | inconclusive: 25.1 µM [inhibitor, partial curve, poor fit] | 
39 | CCOC(=O)N1CCN(Cc2nc3cc(NC(=O)CC)ccc3n2CC)CC1 | inconclusive: 22.4 µM [inhibitor, single point] | 
40 | COc1cc(C(=O)N2CC(=O)Nc3ccccc32)cc(OC)c1OC | inconclusive: 11.2 µM [inhibitor, partial curve, poor fit] | 
41 | ClCc1nc2ccccc2n1Cc1ccccc1 | inconclusive: 12.6 µM [inhibitor, single point] | 
42 | O=Cc1c(Cl)nc2ccccn2c1=O | inconclusive: 35.5 µM [inhibitor, single point] | 
43 | CNc1nc(Nc2ccc(C)cc2C)c2sccc2n1 | inconclusive: 15.8 µM [inhibitor, single point] | 
44 | COc1ccc(C(=O)NCCNc2ccccc2[N+](=O)[O-])cc1 |  | inactive: 4.63%
45 | CCOC(=O)c1[nH]c(C)c(C(=O)OC)c1C |  | inactive: -0.523%
46 | CC(c1ccccc1)N1C(=O)c2ccc(C(=O)Nc3ccc(Br)cc3C(=O)O)cc2C1=O (centres undefined) |  | inactive: -4.46%

Row | Structure (SMILES) | Potency | activity, negative = active
47 | COc1ccc(/C=C2\SC(=N)N(c3nccs3)C2=O)cc1OC | inconclusive: 15.8 µM [inhibitor, single point] | 
48 | CN1/C(=C/C=C(/C#N)C(N)=O)C(C)(C)c2ccccc21 | inconclusive: 5.62 µM [inhibitor, full curve, poor fit] | 
49 | COc1nc(Oc2ccc(=O)n(-c3ccccc3)n2)nc(N(C)C)n1 |  | inactive: -1.78%
50 | O=C(CN1C(=O)/C(=C/c2ccccc2)SC1=S)NNC(=O)c1ccccc1O |  | inactive: -10.4%
51 | Cc1[nH][nH]c(=O)c1C(c1c(C)[nH][nH]c1=O)c1cn(Cc2ccccc2Cl)c2ccccc12 | active: 11.2 µM | 
52 | CCc1ccc(C2C(C#N)=C(N)SC(N)=C2C#N)cc1 | inconclusive: 35.5 µM [inhibitor, single point] | 
53 | Fc1ccc(-c2cnn3c(-c4cccs4)ccnc23)cc1 | inconclusive: 7.94 µM [inhibitor, partial curve, poor fit] | 
54 | COc1ccc(NC(=O)CSc2nc(-c3ccc(C)cc3)cc(C(F)(F)F)c2C#N)cc1 |  | inactive: 1.11%
55 | COc1ccccc1NS(=O)(=O)c1cc(N)ccc1N1CCCC1 |  | inactive: -1.91%
56 | CCN1CCN(c2cc(N3CCN(C(=O)c4ccco4)CC3)c3c4c(onc24)-c2ccccc2C3=O)CC1 | inconclusive: 10 µM [inhibitor, partial curve, poor fit] | 
57 | COC(=O)c1cc(=O)n(CCc2ccc(OC)c(OC)c2)c(=Nc2ccc(F)c(Cl)c2)s1 | inconclusive: 35.5 µM [inhibitor, single point] | 
58 | CCOC(=O)c1[nH]c(C)c(C(=O)Nc2cc(OC)ccc2OC)c1C | inconclusive: 1.12 µM [inhibitor, full curve, poor fit] | 
59 | CCOc1cc(/C=C2/C(=N)N3C(=NC2=O)SN=C3S(C)(=O)=O)ccc1OC(=O)c1ccco1 |  | inactive: -7.47%
60 | Cc1ccc2nc(C)c(C(=O)NN=C3CCCCCC3)n2c1 | inconclusive: 14.1 µM [inhibitor, partial curve, poor fit] | 
61 | CCOC(=O)c1c(NC(=O)c2ccc(S(=O)(=O)N(C)C)cc2)sc2c1CCN(C)C2 | inconclusive: 25.1 µM [inhibitor, single point] | 
62 | COc1ccc(-c2cnc3c(NC(C)=O)cc(-c4cccc(NS(C)(=O)=O)c4)cn23)cc1OC | inconclusive: 22.4 µM [inhibitor, single point] | 
63 | Cc1cccc(N2CCC(N3CCN(C4CCCCC4)C(CCO)C3)CC2)c1C (centres undefined) |  | inactive: -0.0068%
64 | COc1cc(NC(=O)c2cc3ccccc3cc2OC)ccc1NC(=O)c1cccs1 |  | inactive: -13.9%
65 | O=C(N/N=C/c1cccs1)c1cc(-c2cccc3ccccc23)n[nH]1 | inconclusive: 3.55 µM [inhibitor, full curve, poor fit] | 
66 | O=C(N/N=C/C(Br)=C/c1ccccc1)c1ccncc1 | inconclusive: 35.5 µM [inhibitor, single point] | 
67 | O=c1oc2cc(OCc3ccc([N+](=O)[O-])cc3)ccc2c2c1CCCC2 |  | inactive: 0.276%
68 | CCc1cc2c(=O)c(-c3nc(C)cs3)coc2cc1O | inconclusive: 17.8 µM [inhibitor, single point] | 
69 | O=C(NC(=S)Nc1ccc(F)c([N+](=O)[O-])c1)c1ccccc1F | inconclusive: 17.8 µM [inhibitor, partial curve, poor fit] | 
